In all, about 150,000 compounds went through this assay and about 540 (0.36%) showed an effect of 50% or more. The list shows a part of the results.

This assay concerns Plasmodium falciparum. Briefly: Primary screen in NF54 nanoGlo assay, in single point, at 2uM, 72h; a lower Z score goes with more inhibition. The format is functional, Erythrocyte. The conditions noted are these: timepoint 72 hour.
Take `OC[C@H]1CN(Cc2ccc3cc(Cl)ccc3n2)C[C@H]1CN1CCCCC1`: the “% Inhibition” value is on record as -11% and the Z score was 1.82.
For the compound `Cc1n[nH]c(CCc2nc(-c3cn(C)cn3)no2)c1C`, the “% Inhibition” value was -3% and the Z score is 0.46.
The corresponding values for `CCOCC1(CNC(=O)[C@H](C)S(=O)(=O)CC)CCC1` are -4% and 0.56.
For `Cc1cccc(OC(=O)O[C@H]2c3nccnc3C(=O)N2c2ccc(Cl)cn2)c1` the same measures were 32% and -4.18.
`CCc1ncc(C(=O)N(C)CCc2cn[nH]c2)cn1`: the “% Inhibition” value was -3% and the Z score was 0.52.
Consider `C[C@H](NC(=O)COc1ccc(CO)nc1)c1cccs1`, for which the “% Inhibition” value was -2% and the Z score is 0.26.
With `Cc1cc(C(=O)N2CCn3nc(CCC(=O)NC4CC4)cc3C2)nc(C)n1`, the “% Inhibition” value was -7% and the Z score is given as 1.45.
For `COc1ccc(Cn2nc(C)n(-c3c(C)cccc3C)c2=O)cc1` the same measures were 1% and -0.2.
Turning to `CCOCC(=O)N[C@H]1CCN(c2ncnc3c2CCC3)C1`, the “% Inhibition” value is on record as -11% and the Z score amounted to 1.88.
For the compound `COc1cccc2nc(C[C@H]3CN(C(=O)C4CCCCC4)CC[C@H]3CC(=O)O)[nH]c12`, the “% Inhibition” value is -1% and the Z score is recorded as 0.09.
The corresponding values for `COCC1(C(=O)N[C@H]2CN(CC(N)=O)C[C@@H]2c2ccc(C)o2)CCC1` are 1% and -0.27.
For `O[C@H]1CN(c2nc3ccccc3o2)C[C@@H]1N1CCCC1` the same measures were -4% and 0.5.
The corresponding values for `CC(C)(C)Cc1nc([C@H]2C[C@@H](c3ccccc3)N3CCC[C@H]23)no1` are -12% and 2.34.
Consider `Cc1cc(NC(=O)c2csc(CN(C)C)n2)cc2sc(N)nc12`, for which the “% Inhibition” value is given as 2% and the Z score is -0.23.
For `CC(C)(CNc1ccc(Br)cc1C#N)NS(C)(=O)=O` the same measures were -11% and 1.29.
The corresponding values for `CC1(S(=O)(=O)N2CCN(Cc3cncs3)CC2)CC1` are -11% and 1.08.
As for `CC(=O)N1CC(C(=O)NCc2ccccc2Cl)C1`, the “% Inhibition” value is recorded as 1% and the Z score is recorded as -0.18.
The corresponding values for `CCOc1cccc(CNC(=O)c2ccc(Oc3nccnc3N3CCCCC3)cc2)c1` are -5% and 0.9.
For `CCc1nnc(CNC(=O)[C@H]2CCCN(Cc3ccco3)C2)s1` the same measures were 1% and -0.11.
As for `C[C@H](NCc1csc(N)n1)c1ccc(N2CCCC2=O)cc1`, the “% Inhibition” value worked out at 8% and the Z score was -0.88.
For `O=C(NCc1ccnc(OC2CCC2)c1)c1c[nH]c2cccc(F)c12` the same measures were -11% and 1.39.
`CC(C)(C)c1cc(NC(=O)C2CN(C(=O)c3cnccn3)C2)on1`: the “% Inhibition” value is -14% and the Z score is recorded as 2.21.
For `CCN(CC)C(=O)Cc1c(F)cccc1Cl` the same measures were -6% and 1.15.
As for `COCCc1ccc2oc(NCc3cnn(C(C)(C)C)c3)nc2c1`, the “% Inhibition” value is on record as -6% and the Z score worked out at 0.73.
The corresponding values for `O=C1NS(=O)(=O)c2cccnc2N1c1cccc(Cl)c1` are -12% and 1.39.
For `CC1CCCCC1NC(=O)NC1CC(=O)N(c2ccc3c(c2)OCCO3)C1` (stereo not drawn) the same measures were 18% and -2.54.
For `Cc1nnc(NC(=O)c2nnn(-c3nc(C)c(C)s3)c2C)s1` the same measures were -6% and 1.17.
`Cc1cc(C(F)(F)Cl)n(-c2nc(-c3ccco3)cc(C(F)(F)F)n2)n1`: the “% Inhibition” value is listed as -33% and the Z score was 3.86.
The corresponding values for `C=C(C)CN(C)C(=O)Nc1ccc(Br)c(C)n1` are 8% and -1.04.
As to `CCc1n[nH]c2c1CN(CCN1C[C@@H]3CC[C@H]1C3)CC2`, the “% Inhibition” value was -14% and the Z score is recorded as 1.23.
The corresponding values for `CC(C)C(NC(=O)NC(c1cccs1)C(C)C)c1cccs1` (stereo not drawn) are 2% and -0.3.
On to `O=C(Nc1nncs1)C1CCN(S(=O)(=O)c2ccc(Cl)cc2)CC1`, for which the “% Inhibition” value is -17% and the Z score was found to be 3.46.
The corresponding values for `O=C(Nc1cccc(CNc2ncc(Cl)cn2)c1)NC1CC1` are -6% and 0.71.
The corresponding values for `COC(=O)[C@H]1CCCCN1CC(=O)NCc1ccccc1C` are 15% and -2.04.
For `Cc1ccc(NC(=O)C2[C@@H]3C=C[C@]4(O3)C(C(=O)NC3CCCC(C)C3C)N(C(C)CCc3ccccc3)C(=O)[C@H]24)cc1Cl` (stereo partly drawn) the same measures were 12% and -1.88.
Take `CN1N=C(C(=O)N(C)c2nccs2)CCC1=O`: the “% Inhibition” value is reported as -5% and the Z score came out at 1.02.
The corresponding values for `COCC(=O)N[C@H](C(=O)N1CCC(c2ccco2)C1)C(C)C` (stereo partly drawn) are 1% and -0.14.
As for `Cc1nnc2ccc(-c3cccc(NC(=O)C4CCN(S(C)(=O)=O)CC4)c3)nn12`, the “% Inhibition” value is -2% and the Z score came to 0.34.
Regarding `Cc1ccnn1-c1ccccc1NC(=O)Cc1cccs1`, the “% Inhibition” value is recorded as -3% and the Z score was found to be 0.47.
For `CCCc1cc(C(=O)N2CCC(Cc3ccccc3)CC2)[nH]n1` the same measures were 20% and -2.53.
The corresponding values for `N#Cc1cccc(C(=O)N2CCC3(CC2)N(Cc2ccccc2)C(=O)CS3(=O)=O)c1` are -7% and 1.11.
The corresponding values for `COc1ccc(C2=NN(C(=O)CN(CCN3CCOCC3)C(=O)c3cccc(F)c3)[C@H](c3ccc(C)cc3)C2)cc1` are -12% and 2.04.
As to `Cc1oc2ncnc(N3CCC(C(=O)Nc4ccc(Br)cc4)CC3)c2c1C`, the “% Inhibition” value is -6% and the Z score came to 0.71.
As for `CN(CC1CCCCO1)c1ncc(Cl)c(N(C)CC2CCCCO2)n1` (stereo not drawn), the “% Inhibition” value is on record as -6% and the Z score is given as 0.7.
The corresponding values for `COc1ccccc1CN1C(=O)O[C@H]2CN(Cc3nccn3C)C[C@H]21` are -8% and 1.14.
The corresponding values for `Cc1cccc(CN2CCn3nc(CCC(=O)N4CCOCC4)cc3C2)c1` are 5% and -0.67.
The corresponding values for `CNC(=O)N(C)C1CCC(F)(F)CC1` are -12% and 1.16.
Regarding `CNC(=O)[C@@H]1CN(Cc2ccc(-c3cccc(Cl)c3)s2)CCO1`, the “% Inhibition” value turned out to be 0% and the Z score is given as 0.05.
The corresponding values for `CC#CCN1C(=O)N[C@@](CCc2ccccc2)(C2CCN(Cc3ccccn3)CC2)C1=O` are -2% and 0.3.
In the case of `Cc1n[nH]c(C)c1CCCNC(=O)[C@H]1CCOc2ccccc2C1`, the “% Inhibition” value turned out to be 0% and the Z score is 0.
For `CCC(O)(C#CCN1CCOCC1)CC` the same measures were 7% and -1.33.
As for `c1ccc2c(c1)nc(N1CC(c3ncc(C4CC4)cn3)C1)c1cncn12`, the “% Inhibition” value is -16% and the Z score is 2.8.
The corresponding values for `C[C@H](NC(=O)C1(N2CCCCC2)CCCCC1)c1nncn1C1CCCC1` are -6% and 0.86.
Regarding `CCCc1nc(CN(C)c2nccnc2OC)no1`, the “% Inhibition” value is recorded as -8% and the Z score was 1.04.
For `O=C(c1cccn2c(=O)[nH]nc12)N1C[C@H](c2ccccc2)C2(CCC2)C1` the same measures were -4% and 0.45.
For `O=C(NC[C@H](Cc1ccc2ccccc2c1)C(=O)O)c1ccccc1Cn1cccn1` the same measures were -2% and 0.15.
For `C[C@@H](C(=O)N1Cc2ccc(Br)cc2C1)S(N)(=O)=O` the same measures were 2% and -0.43.
Regarding `CCC(C)n1ncc(NC(=O)N2CCC(c3ccccc3)C2C)c1C` (stereo not drawn), the “% Inhibition” value is listed as -4% and the Z score was found to be 0.47.
For `CCCNC(=O)CNC(=O)c1cc2n(n1)CCCN(Cc1ccccc1)C2=O` the same measures were -18% and 2.61.
As to `O=C1CC(CC(=O)N2CCc3ccccc3[C@H]2c2ccccc2)C(=O)N1` (stereo partly drawn), the “% Inhibition” value was -14% and the Z score is given as 2.22.
For `O=C(NCC1CC1)c1cn(C2CN(S(=O)(=O)c3cccc4cccnc34)C2)nn1` the same measures were -10% and 1.84.
Consider `C[C@H](O)CN(C(=O)CCc1ccncc1)C1CC1`, for which the “% Inhibition” value is 1% and the Z score is on record as -0.12.
For `C[C@H](NC(=O)N(C)CCCN1CCCCCC1)c1ccc2[nH]ccc2c1` the same measures were -3% and 0.47.
For `CC(C)(C)c1cnnn1-c1ccc(NC(=O)c2cccs2)cc1` the same measures were -13% and 2.08.
The corresponding values for `O=C(N[C@H]1CCCc2cnccc21)c1cnc2n1CCC2` are 22% and -2.83.
Turning to `Cc1cn2cc(C(=O)N[C@@H]3COCC[C@@H]3OCc3cscn3)ccc2n1`, the “% Inhibition” value is reported as -6% and the Z score is reported as 1.03.
Turning to `CC(C)N1C(=O)[C@@H]2C(C(=O)Nc3ccc(Cl)c(Cl)c3)[C@]3(C)C=C[C@]2(O3)C1C(=O)NC1CCCCC1` (stereo partly drawn), the “% Inhibition” value is reported as -5% and the Z score is 0.61.
The corresponding values for `Cc1ccc2nc(-c3cncnc3)cc(C(=O)N3CCC[C@H]3c3nc(C)no3)c2c1` are -2% and 0.32.
Turning to `COc1ccc(CCC(=O)N[C@H](c2nc3ccccc3n2C(C)C)C(C)C)cc1`, the “% Inhibition” value was -5% and the Z score was 0.81.
For `N#Cc1ccc(C(=O)N(CCC(F)(F)F)CC2CC2)nc1` the same measures were 5% and -0.62.
The corresponding values for `Cc1ccc(S(=O)(=O)N2CCCC2)cc1-c1nnc(-c2ccccc2)o1` are -6% and 0.99.
For `O=C(O)[C@H]1CN(C(=O)c2ccc3cc[nH]c3c2)C[C@@H]1C1CC1` the same measures were 5% and -0.91.
`Cc1nc(-c2ccc(N3CCN(C(=O)c4cccs4)CC3)nc2)no1`: the “% Inhibition” value stood at 10% and the Z score is listed as -1.27.
Turning to `CCn1ncnc1CN(C)CCCn1cccn1`, the “% Inhibition” value is recorded as -5% and the Z score is recorded as 0.8.
The corresponding values for `COCCCNC(=O)c1n[nH]c2c1CN(C(=O)Cc1cccc(Cl)c1)CC2` are -14% and 1.37.
On to `O=C(NCc1c(F)cccc1F)c1cc(O)ncn1`, for which the “% Inhibition” value is listed as -5% and the Z score is reported as 0.9.
Regarding `Cc1ccc(C2(c3noc(COc4ccc(C)nc4)n3)CCCC2)cc1`, the “% Inhibition” value is -5% and the Z score amounted to 0.74.
For `FC1(F)CN[C@H](CN2CCCCC2)C1` the same measures were -10% and 1.36.
The corresponding values for `CC1(C)C2CCC1(C)C(NS(=O)(=O)N1CCOCC1)C2` (stereo not drawn) are -13% and 1.3.
For `CCc1ccc(S(=O)(=O)Nc2cccn3nc(CC)nc23)cc1` the same measures were 3% and -0.32.
Consider `CCS(=O)(=O)N1CC(Oc2cccc(C)c2)C1`, for which the “% Inhibition” value is -10% and the Z score was determined as 1.37.
For `CC(C)(NCCc1c[nH]c2ccccc12)c1nnnn1Cc1cccnc1` the same measures were 34% and -1.36.
On to `Cc1csc([C@H](C)NC(=O)N(C)CC2(c3ccccc3)CC2)n1`, for which the “% Inhibition” value is -3% and the Z score worked out at 0.34.
For `Cc1cc(C)cc(/N=C(/NC(=O)c2cccc(C)c2)N2CCN(Cc3cccc(F)c3)CC2)c1` the same measures were -7% and 1.3.

One may read the % Inhibition as the relative decrease from the control value, in per cent.

For the origin of these results see ChEMBL document CHEMBL4888484, “Replenishing the malaria drug discovery pipeline: Screening and hit evaluation of the MMV Hit Generation Library 1 (HGL1) against asexual blood stage Plasmodium falciparum ,using a nano luciferase reporter read-out” (2022).
